Measured values taken from the supplement of paper PMC4967469.

What was measured:
Assay in all cases: Viability of human cancer cell lines after 72 h of drug (GDSC screen)
ABT-263 = compound: CC1(C)CCC(c2ccc(Cl)cc2)=C(CN2CCN(c3ccc(C(=O)NS(=O)(=O)c4ccc(N[C@H](CCN5CCOCC5)CSc5ccccc5)c(S(=O)(=O)C(F)(F)F)c4)cc3)CC2)C1 [ABT-263]; settings: top dose 2 µM; top dose inferred
Protocol: (§1)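 Human cancer cell lines in 384-well plates, medium with 10% serum, drug for 72 h over a 256-fold dose range (nine 2-fold or five 4-fold steps up to the top dose). Adherent lines were fixed and stained with the nucleic acid dye Syto60, suspension lines read with resazurin; signal relative to control wells, capped at 0 and 100%. One two-parameter sigmoid per drug and line, fitted in a mixed model over all curves with the slope shared within a line.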

piperlongumine = compound: COc1cc(/C=C/C(=O)N2CCC=CC2=O)cc(OC)c1OC [piperlongumine]; settings: top dose 10 µM
Protocol: as §1

PIK-93 = compound: CC(=O)Nc1nc(C)c(-c2ccc(Cl)c(S(=O)(=O)NCCO)c2)s1 [PIK-93]; settings: top dose 20 µM
Protocol: as §1

GW 441756 = compound: Cn1cc(/C=C2\C(=O)Nc3cccnc32)c2ccccc21 [GW 441756]; settings: top dose 2 µM; top dose inferred
Protocol: as §1

| Cell Line | AUC (ABT-263) | pIC50 (ABT-263) | AUC (piperlongumine) | pIC50 (piperlongumine) | AUC (PIK-93) | pIC50 (PIK-93) | AUC (GW 441756) | pIC50 (GW 441756) |
| --- | --- | --- | --- | --- | --- | --- | --- | --- |
| H2731 (mesothelioma, adherent) | 0.953 | < 5.70 | 0.823 | 5.15 | 0.821 | 4.86 | 0.879 | < 5.70 |
| H2795 (mesothelioma, adherent) | 0.97 | < 5.70 | 0.836 | 5.19 | 0.682 | 5.40 | 0.885 | < 5.70 |
| H2869 (mesothelioma, adherent) | 0.925 | < 5.70 | 0.813 | 5.15 | 0.846 | < 4.70 | 0.89 | < 5.70 |
| H3118 (head and neck, adherent) | 0.922 | < 5.70 | 0.749 | 5.46 | 0.778 | 5.05 | 0.968 | < 5.70 |
| H3255 (lung adenocarcinoma, adherent) | 0.948 | < 5.70 | 0.825 | 5.12 | 0.906 | < 4.70 | 0.982 | < 5.70 |
| HARA (lung squamous cell carcinoma, adherent) | 0.922 | < 5.70 | 0.978 | < 5.00 | 0.753 | 5.11 | 0.945 | < 5.70 |
| HCC202 (breast, adherent) | 0.954 | < 5.70 | 0.802 | 5.13 | 0.661 | 5.38 | 0.889 | < 5.70 |
| HCC1143 (breast, adherent) | 0.95 | < 5.70 | 0.777 | 5.24 | 0.72 | 5.16 | 0.972 | < 5.70 |
| HCC1395 (breast, adherent) | 0.917 | < 5.70 | 0.89 | < 5.00 | 0.948 | < 4.70 | 0.927 | < 5.70 |
| HCC1419 (breast, adherent) | 0.842 | < 5.70 | 0.953 | < 5.00 | 0.876 | < 4.70 | 0.905 | < 5.70 |
| HCC1428 (breast, adherent) | 0.935 | < 5.70 | 0.878 | < 5.00 | 0.964 | < 4.70 | 0.983 | < 5.70 |
| HCC1500 (breast, adherent) | 0.361 | 7.29 | 0.834 | 5.16 | 0.919 | < 4.70 | 0.988 | < 5.70 |
| HCC1569 (breast, adherent) | 0.588 | 6.63 | 0.874 | < 5.00 | 0.826 | 4.74 | 0.977 | < 5.70 |
| HCC1937 (breast, adherent) | 0.844 | 5.75 | 0.816 | 5.18 | 0.829 | 4.82 | 0.919 | < 5.70 |
| HCC1954 (breast, adherent) | 0.961 | < 5.70 | 0.741 | 5.46 | 0.888 | < 4.70 | 0.965 | < 5.70 |
| HCC-15 (lung squamous cell carcinoma, adherent) | 0.63 | 6.50 | 0.868 | < 5.00 | 0.934 | < 4.70 | 0.938 | < 5.70 |

| Cell Line | AUC (ABT-263) | pIC50 (ABT-263) | AUC (piperlongumine) | pIC50 (piperlongumine) | AUC (PIK-93) | pIC50 (PIK-93) | AUC (GW 441756) | pIC50 (GW 441756) |
| --- | --- | --- | --- | --- | --- | --- | --- | --- |
| HCC-44 (lung adenocarcinoma, adherent) | 0.981 | < 5.70 | 0.73 | 5.56 | 0.789 | 5.06 | 0.978 | < 5.70 |
| HCC-56 (large intestine, adherent) | 0.957 | < 5.70 | 0.79 | 5.34 | 0.94 | < 4.70 | 0.983 | < 5.70 |
| HCC-78 (lung adenocarcinoma, adherent) | 0.972 | < 5.70 | 0.889 | < 5.00 | 0.839 | 4.77 | 0.983 | < 5.70 |
| HCC-827 (lung adenocarcinoma, adherent) | 0.86 | < 5.70 | 0.788 | 5.29 | 0.944 | < 4.70 | 0.955 | < 5.70 |
| HCT-15 (large intestine, adherent) | 0.984 | < 5.70 | 0.83 | 5.17 | 0.81 | 4.95 | 0.973 | < 5.70 |
| HCT-116 (large intestine, adherent) | 0.987 | < 5.70 | 0.75 | 5.50 | 0.768 | 5.15 | 0.98 | < 5.70 |
| HDQ-P1 (breast, adherent) | 0.903 | < 5.70 | 0.845 | 5.03 | 0.894 | < 4.70 | 0.975 | < 5.70 |
| HEC-1 (endometrium, adherent) | 0.93 | < 5.70 | 0.722 | 5.59 | 0.969 | < 4.70 | 0.967 | < 5.70 |
| HGC-27 (stomach, adherent) | 0.98 | < 5.70 | 0.567 | 6.03 | 0.665 | 5.48 | 0.966 | < 5.70 |
| HN (head and neck, adherent) | 0.945 | < 5.70 | 0.66 | 5.77 | 0.988 | < 4.70 | 0.97 | < 5.70 |
| HO-1-u-1 (head and neck, adherent) | 0.948 | < 5.70 | 0.767 | 5.45 | 0.963 | < 4.70 | 0.979 | < 5.70 |
| HOS (osteosarcoma, adherent) | 0.984 | < 5.70 | 0.637 | 5.86 | 0.992 | < 4.70 | 0.989 | < 5.70 |
| HSC-2 (head and neck, adherent) | 0.943 | < 5.70 | 0.742 | 5.54 | 0.866 | 4.81 | 0.989 | < 5.70 |
| HT55 (large intestine, adherent) | 0.988 | < 5.70 | 0.874 | 5.02 | 0.97 | < 4.70 | 0.978 | < 5.70 |
| HT-3 (cervix, adherent) | 0.962 | < 5.70 | 0.718 | 5.58 | 0.905 | < 4.70 | 0.928 | < 5.70 |

pIC50: −log10 of the molar value. The IC50 comes from the fitted curve, where viability falls to half of the control; a fit beyond the top or the lowest dose is shown as a bound at that dose. For AUC the same curve is integrated over the 256-fold range of doses and scaled to a fraction; it is 1 without any effect and falls as sensitivity rises. For some assays here: Any top dose called inferred was calculated from the reported fits.
